42 molecules from ChEMBL document CHEMBL4888484, “Replenishing the malaria drug discovery pipeline: Screening and hit evaluation of the MMV Hit Generation Library 1 (HGL1) against asexual blood stage Plasmodium falciparum ,using a nano luciferase reporter read-out” (2022) can be followed below.

Among all 150,000 compounds or so, about 540 (0.36%) showed an effect of 50% or more. The list shows a part of the results.

The subject of the experiment is Plasmodium falciparum. The experiment can be described thus: Primary screen in NF54 nanoGlo assay, in single point, at 2uM, 72h; a lower Z score goes with more inhibition. Format: functional, Erythrocyte. The note with it: timepoint 72 hour.
Broadly, the % Inhibition is the drop in the measured response relative to a control, in per cent. For `CCOC1CC(N(C)C(=O)c2cc(C)n(-c3cc(C)on3)c2C)C1(C)C` (centres undefined), the “% Inhibition” value is reported as 8% and the Z score is on record as -1.33.

On to `CC[C@H](C)Cc1nc(-c2cc(C#N)c[nH]2)n(CC(C)(C)O)n1`, for which the “% Inhibition” value is recorded as -11% and the Z score is 1.01.

Turning to `CCc1nc2c(c(OC3CCN(C(=O)c4sccc4C)CC3)n1)CCOCC2`, the “% Inhibition” value was -4% and the Z score was 0.44.

`CC12C(N)(c3ccccc3)NC(=O)C1(C#N)C2(C#N)C#N` (centres undefined): the “% Inhibition” value is recorded as -9% and the Z score is listed as 1.47.

`Cc1nc(N2CCC(C)CC2)nc2oc(-c3ccccc3)nc12`: the “% Inhibition” value was -6% and the Z score amounted to 0.79.

As for `COc1ccc(N2C[C@@H](c3nnc(NC(=O)COc4ccccc4C)o3)CC2=O)cc1`, the “% Inhibition” value is reported as -4% and the Z score is reported as 0.56.

`O=C1CC[C@@H](C(=O)N2CC(Oc3nc4ccccc4s3)C2)N1`: the “% Inhibition” value was -15% and the Z score stood at 1.68.

As for `Cc1ccc(C)n1-c1c(C(=O)N2CCC(Cc3ccccc3)CC2)sc2ncccc12`, the “% Inhibition” value is on record as -21% and the Z score was 1.93.

Turning to `O=C(Nc1ccc(F)cc1)N1CCc2ccccc2[C@H]1c1ccccc1Cl`, the “% Inhibition” value came to 3% and the Z score is -0.45.

As for `CC(COC1CCOC1)NC(=O)NC1CCN(C(C)C)C1=O` (centres undefined), the “% Inhibition” value is 16% and the Z score is -1.86.

Take `CC(C)c1nccn1Cc1ccncc1F`: the “% Inhibition” value worked out at 0% and the Z score was -0.05.

Turning to `Cc1cc(C)nc(N[C@@H](Cc2ccccc2)C(=O)N2CCn3c(nnc3C(F)(F)F)C2)n1`, the “% Inhibition” value came to 10% and the Z score is recorded as -1.22.

In the case of `Cc1ccc(CN(Cc2ccc(F)cc2)C(=O)CN(C(=O)c2ccccc2Cl)C2CCCCC2)s1`, the “% Inhibition” value is reported as 11% and the Z score is given as -1.54.

In the case of `COC1(C)CCN(C(=O)[C@@H]2C[C@H](C)CC(=O)N2)CC1`, the “% Inhibition” value was 3% and the Z score was -0.42.

For `COc1cccc(NC(=O)[C@@H]2Cc3[nH]cnc3C3(CCCC3)N2)c1`, the “% Inhibition” value is reported as -10% and the Z score is on record as 1.58.

On to `Cn1c(=O)ccc2ccc(NC(=O)N3CCC[C@H](c4ccc(F)c(F)c4)C3)cc21`, for which the “% Inhibition” value is on record as -3% and the Z score turned out to be 0.51.

As for `CO[C@@H](C)Cn1ccc(=O)c2cccc(OC(F)(F)F)c21`, the “% Inhibition” value is given as -8% and the Z score was determined as 0.74.

For `COc1cc(C(=O)NCCN2CCOCC2)cc2occc12`, the “% Inhibition” value came out at 31% and the Z score is recorded as -4.47.

For `CCC(C)N(Cc1ccccc1)CC(O)COC(C)(C)C` (centres undefined), the “% Inhibition” value is given as -3% and the Z score stood at 0.43.

As to `Cc1cc(C(=O)NC2(C(F)F)CC2)oc1C`, the “% Inhibition” value is -6% and the Z score is 1.2.

`CC(C)c1cc(=O)n(Cc2nccn2C(F)F)cn1`: the “% Inhibition” value is recorded as -5% and the Z score is reported as 0.53.

As for `Cc1nc(CN[C@@H](C)c2ccc(N3CCN(C)CC3)cc2)cs1`, the “% Inhibition” value is -13% and the Z score is reported as 1.28.

With `Nc1ccc(OCC(F)F)c(Cl)c1`, the “% Inhibition” value stood at 0% and the Z score is listed as 0.06.

As for `COc1cc(OC)cc(C(=O)NC(C(C)C)C(C)C)c1`, the “% Inhibition” value is recorded as 0% and the Z score stood at 0.03.

`O=C(NCc1ccccn1)C(F)(F)F`: the “% Inhibition” value is reported as 7% and the Z score is recorded as -1.11.

As for `O=C(NCC1CCN(c2cc(O)ncn2)CC1)c1ccccc1`, the “% Inhibition” value was -9% and the Z score was 1.66.

For `Cc1ccccc1OCCN1C(=O)N[C@@]2(CCCCc3ccccc32)C1=O`, the “% Inhibition” value is -3% and the Z score is 0.66.

Turning to `CCC(=O)Nc1nnc([C@H]2CC(=O)N(c3ccc(OC(F)(F)F)cc3)C2)o1`, the “% Inhibition” value is -7% and the Z score stood at 1.07.

`C[C@H](NC(=O)c1coc(COc2ccc3ncccc3c2)n1)c1cnn(C)c1`: the “% Inhibition” value is on record as 5% and the Z score is given as -0.66.

With `COc1cc(CN[C@H]2C[C@H](O)C23CCOCC3)on1`, the “% Inhibition” value is -14% and the Z score came out at 1.44.

With `N#Cc1c(-c2ccoc2)cc(-c2cccc(C(=O)O)c2)nc1N`, the “% Inhibition” value came to 1% and the Z score is -0.18.

With `Cc1nc2c(c(=O)n1C)CN([C@@H](C)C(=O)Nc1ccc(F)cc1)C2`, the “% Inhibition” value came to 6% and the Z score is reported as -1.08.

Consider `CCn1c(CN2CCN(c3ncccn3)CC2)nc2cc(S(=O)(=O)N3CCCCC3)ccc21`, for which the “% Inhibition” value is -4% and the Z score is recorded as 0.62.

For the molecule `Cn1cnc(CCNC(=O)C2(C)COC2)c1`, the “% Inhibition” value was -2% and the Z score was 0.45.

Take `O=c1ccc(C(F)(F)F)nn1Cc1cc2n(n1)CCC2`: the “% Inhibition” value was -1% and the Z score amounted to 0.14.

Take `CC(C)c1ccc(S(=O)(=O)Nc2ccc(CCc3nc4ccccc4n3-c3ccccc3)cc2)cc1`: the “% Inhibition” value is listed as 6% and the Z score is given as -0.76.

`O=C(Nc1ccnn1-c1ccc(Cl)cc1)c1ccoc1Cl`: the “% Inhibition” value is listed as -4% and the Z score is 0.42.

Regarding `CCc1nc(C)c(C(C)N(C)S(=O)(=O)N2CCCC(C)C2)s1` (centres undefined), the “% Inhibition” value came to 1% and the Z score is -0.08.

As to `COc1ccc(-c2cc(C[C@@H]3CC[C@H](O)[C@@H](CNCc4ccccc4)O3)no2)cc1`, the “% Inhibition” value is recorded as -9% and the Z score turned out to be 1.19.

With `CCO[C@H]1C[C@@H](NC(=O)c2ccc(O)c(CC)c2)C1`, the “% Inhibition” value is reported as -3% and the Z score amounted to 0.36.

Take `Cc1csc(C(C)(C)NCCCCC#N)n1`: the “% Inhibition” value is on record as -9% and the Z score amounted to 1.15.

For the molecule `CS(=O)(=O)CCn1cnc(-c2ccccc2)c1-c1nccs1`, the “% Inhibition” value was -9% and the Z score amounted to 1.13.
